# Test results from PubChem BioAssay AID624296 (National Center for Advancing Translational Sciences (NCATS), 2012).
# Values joined by “and” are separate entries in the source; they are usually repeats but may differ in a detail not shown here. Equal values may be shown once. Among all 350,000 compounds or so, about 9,900 (2.8%) were called active. The shares of active, inactive and inconclusive entries below differ from those in the screen. The call rests on the fitted dose curve; in most records, active means well fitted activation curve with a large enough effect; inconclusive means small, poorly fitted or top-dose-only effect; inactive means no such curve, though single readings can be large or run the other way. Potencies beside an inconclusive call are fits to weak or partial responses and may not hold up.
# Experiment: A quantitative high throughput screen for small molecules that induce DNA re-replication in MCF 10a normal breast cells. Further: nearly all actives have a fitted effect of over 50% in size. On activity, positive = re-replication: % of control where 0% means no effect.
# Details: MCF 10A DNA re-replication, Hoechst nuclear intensity, 48 h; activity, positive = re-replication: at 46.1 µM (top of the series)
# Potency means the concentration at half of the fitted maximal effect; tags describe the fitted curve by direction and shape.
Compound,"activity, positive = re-replication",Potency
Cc1csc2nc(CNS(=O)(=O)c3ccc(-c4ccccc4)cc3)cn12,inactive: -14.8%,
c1ccc(CCc2ccccc2-c2nc(-c3ccccn3)no2)cc1,,"inconclusive: 18.4 µM [activator, partial curve, poor fit]"
OC(CNCC1CCCO1)Cn1c2ccc(Br)cc2c2cc(Br)ccc21 (stereo unspecified),,"inconclusive: 23.1 µM [activator, single point]"
CCOc1ccc(Cl)cc1CNCCNCCO,,"inconclusive: 3.66 µM [activator, partial curve, poor fit]"
CC(/C=C/c1ccc(N(C)C)cc1)=N/N=C1/NC(=O)CC(C(=O)Nc2ccc(Cl)cc2)S1 (stereo unspecified),,active: 6.51 µM
CCCCSCCCNC(=O)c1ccc(CS(=O)(=O)c2ccc(OC)cc2)o1,inactive: 1.53%,
OC(CN1C2=NCCN2c2ccccc21)c1ccc2c(c1)OCO2 (stereo unspecified),,"inconclusive: 15.8 µM [activator, partial curve, poor fit]"
Cc1cc(OCCN2CCCCCC2)ccc1[N+](=O)[O-],,"inconclusive: 6.51 µM [activator, single point]"
CC1(C)CC(=O)N(c2ccc(Cl)cc2Cl)C(=O)C1,inactive: -1.6%,
CC(C)Cc1nc2ccc(N)cc2[nH]1,,"inconclusive: 18.4 µM [activator, partial curve, poor fit]"
COc1cccc(-c2cc(C(=O)NCC3CCCO3)on2)c1 (stereo unspecified),inactive: -2.74%,
CCCC(C(=O)NC1CCCC1)N(Cc1ccc2c(c1)OCO2)C(=O)c1snc(C(N)=O)c1N (stereo unspecified),,"inconclusive: 29.1 µM [activator, single point]"
CC(=O)NC1CC2CCCC(C1)N2C(=O)Nc1cccc(C)c1 (stereo unspecified),,"inconclusive: 6.51 µM [activator, partial curve, poor fit]"
CC(C)c1ccc(NC(=O)[C@@H]2CCC(=O)N2C2OC(=O)c3ccccc32)cc1 (stereo partly specified),inactive: -5.04%,
O=C(Nc1ccc(S(=O)(=O)NCc2ccco2)cc1)c1ccc(F)cc1,,"inconclusive: 7.31 µM [activator, partial curve, poor fit]"
O=C(COC(=O)c1ccc2c(c1)C(=O)N(Cc1ccncc1)C2=O)Nc1cccc2ccccc12,,"inconclusive: 29.1 µM [activator, single point]"
COc1ccc(-c2cc(C(=O)N3CCN(C(c4ccccc4)c4ccccc4)CC3)no2)cc1OC,,active: 10.3 µM
O=C(Nc1cccc(C(=O)Nc2ccc(Cl)cn2)c1)c1ccccc1,inactive: 12.1%,
COc1ccccc1CN(Cc1ccco1)S(=O)(=O)c1ccc(-n2cnnn2)c(OC)c1,,"inconclusive: 0.92 µM [activator, full curve, poor fit]"
CCCOc1ccc(C(=O)Nc2cc(S(=O)(=O)N3CCOCC3)ccc2N2CCOCC2)cc1,,"inconclusive: 23.1 µM [activator, single point]"
COC(=O)c1cc(S(=O)(=O)Nc2cccc(C)c2C)cn1C,inactive: -1.12%,
NS(=O)(=O)c1ccc(N=Nc2c(=O)[nH]n3c(=O)c4c([nH]c23)CCCC4)cc1,inactive: -8.35%,

Compound,"activity, positive = re-replication",Potency
COc1ccc(/C=N/OC/C(O)=C(\C#N)c2nc3ccccc3[nH]2)cc1,,"inconclusive: 20.6 µM [activator, partial curve]"
Cc1ccc(-c2csc(N=C(N)N)n2)c(C)c1,,"inconclusive: 29.1 µM [activator, single point]"
Cc1ccc2nc3c(cc2c1)c(C)nn3-c1ccccc1,,"inconclusive: 3.66 µM [activator, partial curve, poor fit]"
COc1ccc(-c2c(=O)n(OCc3nc4ccccc4[nH]3)c3ccccc3[n+]2[O-])cc1,inactive: 8.91%,
COc1cc(OC)cc(-c2c(-c3cccs3)c3cc(-c4ccc(CN5CCOCC5)cc4)ccc3n2C)c1,,"inconclusive: 14.6 µM [activator, single point]"
Cc1ccc2[nH]c(=O)c(C(c3nnnn3C3CCCC3)N3CCCc4ccccc43)cc2c1 (stereo unspecified),,"inconclusive: 18.4 µM [activator, partial curve, poor fit]"
CN(C(=O)c1cccc(NC(=O)Cc2ccc(NC(=O)C3CCN(S(=O)(=O)c4cccc([N+](=O)[O-])c4)CC3)cc2)c1)C1CCCC1,,"inconclusive: 0.517 µM [activator, full curve, poor fit]"
CCOC(=O)Cc1csc(NC(=O)Nc2ccc(Cl)cc2)n1,inactive: 13.6%,
CN(C)c1nc(SCC(=O)Nc2ccccc2)nc(N2CCOCC2)n1,inactive: -2.43%,
O=C(Nc1ccc(Cl)c([N+](=O)[O-])c1)C(NCCCO)c1ccccc1 (stereo unspecified),,"inconclusive: 23.1 µM [activator, partial curve, poor fit]"
Cc1cc(C)cc(NC(=O)N2c3ccccc3NC(=O)CC2C)c1 (stereo unspecified),,"inconclusive: 3.26 µM [activator, single point]"
O=C(CCNC(=O)c1ccc([N+](=O)[O-])cc1)Nc1ccc(Cl)c(S(=O)(=O)N2CCOCC2)c1,inactive: -9.17%,
CC(C)CCNC(=O)c1c(CSc2ccc(Cl)cc2)noc1C(=O)NCc1ccccc1,,"inconclusive: 1.64 µM [activator, full curve, poor fit]"
CC(=O)c1ccc(S(=O)(=O)N(C)CC(=O)N2CCCCCC2)cc1,inactive: -8.95%,
Cc1noc(C)c1S(=O)(=O)N(C)C[C@H]1Oc2c(NC(=O)Nc3ccc(C(F)(F)F)cc3)cccc2C(=O)N([C@H](C)CO)C[C@@H]1C,,"inconclusive: 23.1 µM [activator, single point]"
Clc1cccc(CN2COc3c(cc(Cl)c4cccnc34)C2)c1,,"inconclusive: 29.1 µM [activator, single point]"
O=C1NN=C(c2ccccc2)CC1c1ccc(Cl)cc1Cl (stereo unspecified),,"inconclusive: 29.1 µM [activator, single point]"
COCCN(C(=O)CCC(=O)Nc1ccccn1)C(C(=O)NC(C)C)c1ccc(C)cc1 (stereo unspecified),inactive: -12.1%,
COc1ccc(C(=O)NCCNc2nc3ccc(C)cc3cc2C#N)cc1,,active: 20.6 µM
COc1cccc(C(=O)Nc2cc(NC(=O)c3cccs3)ccc2C)c1OC,inactive: -1.05%,
CCOC(=O)Cn1c(S(=O)(=O)Cc2ccc(F)cc2)nc(-c2ccccc2)c1-c1ccccc1,inactive: -2.71%,
C[C@@H]1CCC(=O)N(CC[C@H](Sc2ccccc2)c2ccccc2)CC1,,"inconclusive: 29.1 µM [activator, single point]"

Compound,"activity, positive = re-replication",Potency
O=C(NCCCN1CCOCC1)c1ccc2c(c1)N(Cc1c(F)cccc1Cl)C(=O)c1ccccc1S2,,"inconclusive: 29.1 µM [activator, single point]"
COc1ccc(/C=C/c2nc(-c3ccccc3)cc(=O)[nH]2)cc1,,"inconclusive: 25.9 µM [activator, partial curve, poor fit]"
CCCCNC(=S)N1CCn2cccc2C1c1ccc(F)cc1 (stereo unspecified),inactive: 10.6%,
CC1CC(C)(C)N2C(=O)C(=C(C#N)C#N)c3cccc1c32 (stereo unspecified),inactive: 2.18%,
COc1ccc(S(=O)(=O)N2CCN(c3cnccn3)CC2)cc1OC,,"inconclusive: 4.11 µM [activator, full curve, poor fit]"
COc1ccc(/C=C/CN2CCC(CO)(Cc3ccccc3Cl)CC2)cc1,,"inconclusive: 18.4 µM [activator, single point]"
CCn1c(CNc2ccc(Cl)cc2)nnc1SCC(=O)OC1CCCCC1,,active: 12.6 µM
O=C(CSc1nc2c(sc3ccccc32)c(=O)n1CCCN1CCCC1)NCc1ccco1,,"inconclusive: 3.66 µM [activator, full curve, poor fit]"
CC(C)(C)SCCNC(=O)c1ccc(NS(C)(=O)=O)cc1,,"inconclusive: 29.1 µM [activator, single point]"
COc1ccc(OC)c(NS(=O)(=O)c2ccc(NC(=O)c3ccc(NS(C)(=O)=O)cc3)cc2)c1,,"inconclusive: 4.61 µM [activator, partial curve, poor fit]"
O=C1CC(SC(=Nc2ccccc2)Nc2ccccc2)C(=O)N1c1cccc(Cl)c1 (stereo unspecified),inactive: 18.2%,
O=C1C(Oc2ccc(Cl)cc2)C(c2ccc3c(c2)OCO3)N1CC1CCCO1 (stereo unspecified),,"inconclusive: 18.4 µM [activator, single point]"
O=C(COc1ccc([N+](=O)[O-])cc1Cl)NCC1CCCO1 (stereo unspecified),,"inconclusive: 0.82 µM [activator, partial curve, poor fit]"
CC(C)(C)NC(=O)[C@@H]1C[C@@H]2CCCC[C@@H]2CN1C[C@@H](O)[C@H](Cc1ccccc1)NC(=O)[C@H](CC(N)=O)NC(=O)c1ccc2ccccc2n1,,"inactive and inconclusive: 116 nM [activator, full curve, poor fit]"
Cc1cc(Cl)cc(C)c1OCCCCCn1ccnc1,,"inconclusive: 29.1 µM [activator, single point]"
Cc1cccc(OC(C)C(=O)Nc2ccc(N3CCCCC3)cc2)c1 (stereo unspecified),inactive: 3.56%,
O=C(Nc1cccc(-c2csc(Nc3ccc(Cl)cc3)n2)c1)c1cccc(C(F)(F)F)c1,,active: 4.11 µM
O=c1cc(N2CCCCC2)c(-c2ccccc2)n[nH]1,inactive: 0.887%,
O=C(CCn1c(=S)[nH]c2cc3c(cc2c1=O)OCO3)NCc1cccc(Cl)c1,,"inconclusive: 29.1 µM [activator, single point]"
CC1=C(C(=O)Nc2cc(C(=O)N3CCC(C)CC3)ccc2C)SCCO1,inactive: 1.15%,
COc1cc(/C=N/N=C(/N)c2nonc2N)cc(Br)c1OCc1cccc(C)c1,,"inconclusive: 18.4 µM [activator, partial curve, poor fit]"
Cc1onc(-c2c(F)cccc2Cl)c1-c1nnc(-c2ccc(C(F)(F)F)cc2)o1,,"inconclusive: 3.66 µM [activator, full curve, poor fit]"
